Laboratory results: patent publication US20260209301A1, “Galanin-2 Receptor Agonists” (LIFEARC, priority 2022, published 2026)

What was measured:
[1] = target: T1, human GalR2 (Homo sapiens, UniProt O43603); assay: Calcium assay, CHO GalR2 cells (FLIPR); details: Table 7; mean +/− standard deviation; highest concentration tested 10 μM
T1 sequence (O43603 1-387): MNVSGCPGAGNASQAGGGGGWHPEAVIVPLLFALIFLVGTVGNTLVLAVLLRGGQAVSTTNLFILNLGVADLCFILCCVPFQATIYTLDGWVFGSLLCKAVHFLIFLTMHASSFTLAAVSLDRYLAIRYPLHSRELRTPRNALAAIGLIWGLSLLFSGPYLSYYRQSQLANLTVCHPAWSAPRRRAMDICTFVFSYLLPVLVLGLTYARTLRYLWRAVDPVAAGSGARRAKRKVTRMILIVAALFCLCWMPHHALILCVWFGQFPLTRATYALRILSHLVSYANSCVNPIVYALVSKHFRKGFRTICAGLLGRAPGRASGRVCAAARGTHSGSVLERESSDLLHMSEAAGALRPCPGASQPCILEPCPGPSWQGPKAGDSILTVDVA

[2] = target: T2, human GalR1 (Homo sapiens, UniProt P47211); assay: cAMP HTRF assay, CHO GalR1 cells; assay type: cell-based; details: Table 7; mean +/− standard deviation; highest concentration tested 10 μM
T2 construct: expressed in transfected cells; host or cells: CHO (Flp-In, pcDNA5/FRT)
T2 sequence (P47211 1-349): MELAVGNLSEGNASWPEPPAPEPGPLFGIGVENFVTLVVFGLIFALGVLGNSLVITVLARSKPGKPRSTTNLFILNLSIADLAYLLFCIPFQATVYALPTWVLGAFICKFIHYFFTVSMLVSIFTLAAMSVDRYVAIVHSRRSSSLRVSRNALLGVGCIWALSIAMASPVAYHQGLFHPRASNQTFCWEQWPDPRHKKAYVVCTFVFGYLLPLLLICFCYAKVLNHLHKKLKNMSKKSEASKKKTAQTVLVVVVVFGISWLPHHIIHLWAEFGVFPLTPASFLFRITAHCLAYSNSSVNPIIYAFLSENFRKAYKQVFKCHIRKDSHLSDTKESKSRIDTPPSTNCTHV
Description: The CAMP dynamic 2 kit (Cisbio International) was used as a competitive immunoassay to measure Homogenous Time-Resolved Fluorescence (HTRF). […] Addition of detection reagent involved adding 5 μl d2 conjugated CAMP followed by 5 μl anti-CAMP cryptate conjugate. The two reagents were not pre-mixed; these were both prepared in cell lysis buffer and incubated at room temperature in the dark for one hour.

B1: Gal2-13FC GGS4: Gal2-13 FC fusion with […] linker; SEQ ID NO: 35 (protein)
chain: WTLNSAGYLLGPGGSGGSGGSGGSLEPKSSDKTHTCPPCTRUE[human IgG1 Fc not spelt out]
modifications: chains of the parent or of the whole protein
B1 was tested, and the “GalR2 activity (calcium assay), linker variants” value [1] was 6.2 +/− 0.1 and the “GalR1 activity (cAMP assay), linker variants” value [2] was 5.3 +/− 0.0.
